This is an account of results in paper PMC6919601, “Identification of Plasmodium dipeptidyl aminopeptidase allosteric inhibitors by high throughput screening” (PLoS ONE, 2019).

Out of some 110,000 compounds screened, about 230 (0.21%) showed an effect of 50% or more. The list shows a part of the results.
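Also: 30 min substrate incubation versus DMSO and 10 µM JCP410 controls.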

Sequence of DPAP1 (Q8IIJ9 whole entry, looked up): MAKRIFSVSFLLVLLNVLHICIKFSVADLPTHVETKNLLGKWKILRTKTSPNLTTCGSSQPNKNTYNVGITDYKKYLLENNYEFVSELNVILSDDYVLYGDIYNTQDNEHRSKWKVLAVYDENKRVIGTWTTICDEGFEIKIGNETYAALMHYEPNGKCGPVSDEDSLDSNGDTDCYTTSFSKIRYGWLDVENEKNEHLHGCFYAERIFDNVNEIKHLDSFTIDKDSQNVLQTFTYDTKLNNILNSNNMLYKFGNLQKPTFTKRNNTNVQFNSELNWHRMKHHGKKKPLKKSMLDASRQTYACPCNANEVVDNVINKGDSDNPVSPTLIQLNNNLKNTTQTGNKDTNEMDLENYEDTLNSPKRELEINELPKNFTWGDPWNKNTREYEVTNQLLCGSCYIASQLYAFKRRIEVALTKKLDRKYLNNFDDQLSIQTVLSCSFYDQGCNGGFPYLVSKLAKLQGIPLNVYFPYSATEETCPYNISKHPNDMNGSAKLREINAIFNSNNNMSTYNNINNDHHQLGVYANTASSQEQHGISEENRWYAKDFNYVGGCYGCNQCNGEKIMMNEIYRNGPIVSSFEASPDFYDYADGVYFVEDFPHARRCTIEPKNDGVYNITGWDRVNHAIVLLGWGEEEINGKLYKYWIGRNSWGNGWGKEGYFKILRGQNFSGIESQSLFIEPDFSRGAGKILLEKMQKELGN

This assay has as its target DPAP1 (Plasmodium falciparum, UniProt Q8IIJ9). In words: primary screen, percent inhibition; read by cleavage of a fluorogenic dipeptide substrate; higher = more effect of the substance. More on the design: species or system P. falciparum D10 trophozoite lysates; single well.
`COc1ccccc1C(=O)Nc1c2c(nn1-c1cccc(C)c1C)CS(=O)(=O)C2`: the “% Inhibition @ 10 uM” value was 0.263%.

For `COc1cccc(-c2cc(C(=O)NCCCn3ccnc3)c3ccccc3n2)c1`, the “% Inhibition @ 10 uM” value is given as -2.9%. Turning to `c1ccc(-n2ncnc2-c2ccncc2)cc1`, the “% Inhibition @ 10 uM” value was determined as 4.74%.

Consider `Cc1nc(CC(=O)NC2CCCC2)cs1`, for which the “% Inhibition @ 10 uM” value is reported as -4.54%. Take `NC(=O)COc1ccc([N+](=O)[O-])cc1`: the “% Inhibition @ 10 uM” value is on record as 3.25%. Next, `CC1=C(C(=O)NCc2cccs2)C2(CCN(Cc3ccccc3)CC2)OC1=O`: -1.31%; `CCO/C(O)=C1\C(C)=NC(C)=C(C(=O)OC)C1c1ccc(Cl)cc1` (stereo not shown): -2.91%. In the case of `CCC(C)NC(=O)CN(c1cccc(Cl)c1Cl)S(=O)(=O)c1ccccc1` (stereo not shown) it was 3.21%. Next, `c1ccc2[nH]c(Nn3cnnc3)nc2c1`: -11%. Regarding `Cc1onc(-c2c(F)cccc2Cl)c1C(=O)NCc1ccncc1`, the “% Inhibition @ 10 uM” value is reported as -0.179%. For the compound `Cc1cccc(NC(=N)Nc2nc(C)cc(C)n2)c1`, the “% Inhibition @ 10 uM” value is recorded as -2.16%. In the case of `CCCCN1CN=C(Nc2nc3ccccc3o2)NC1` it was -5%; in that of `COc1ccc(C)cc1NC(=O)c1ccc([N+](=O)[O-])cc1`, 3.03%.

Turning to `CC(C)Oc1ccc(/C=C/C(=O)Nc2noc3ccccc23)cc1`, the “% Inhibition @ 10 uM” value is given as 5.29%. In the case of `Cn1cnc([N+](=O)[O-])c1Sc1ncnc2[nH]cnc12`, the “% Inhibition @ 10 uM” value is recorded as -1.8%. Next, `O=S(=O)(/N=C(/c1ccc(Cl)cc1)N1CCOCC1)c1ccc(Br)cc1`: 2.95%; `O=S(=O)(c1ccc(Cl)cc1)N(CCCO)CC(O)Cn1c2ccccc2c2ccccc21` (stereo not shown): 7.76%.

For `OC1CCN(Cc2ccc3c(c2)OCO3)CC1`, the “% Inhibition @ 10 uM” value is -0.192%. Next, `CC(C)c1ccc(C2CC(c3c(F)cccc3Cl)n3ncnc3N2)cc1` (stereo not shown): -3.23%; `COc1cc(/C=C2/SC(Nc3ccccc3)=NC2=O)cc(OC)c1`: -23.1%. In the case of `COc1ccc(NC(=O)NCc2ccccn2)cc1`, the “% Inhibition @ 10 uM” value is given as -14.4%. Turning to `O=C(CN1C(=O)S/C(=C\c2ccccn2)C1=O)Nc1ccccc1`, the “% Inhibition @ 10 uM” value is -1.22%. Turning to `COc1ccc(C(=O)Nc2ccccc2Cl)c(OC)c1`, the “% Inhibition @ 10 uM” value is -1.52%. In the case of `O=C(C1CCCC1)N1CCN(C(c2ccccc2)c2ccccc2)CC1` it was 0.795%; in that of `CCOC(=O)c1c(-c2ccc(Cl)cc2)nn2c1NCN(Cc1ccc3c(c1)OCO3)C2`, -4.74%; in that of `N#CCNC(=O)[C@H](CCc1c(F)cccc1F)NC(=O)OCc1ccccc1`, 1.61%.

Consider `Cc1cccc2cc(-c3nc4cc(C(=O)O)ccc4[nH]3)c(=O)oc12`, for which the “% Inhibition @ 10 uM” value is listed as 1.64%.

On to `COc1ccc(/C=C2/NC(=S)NC2=O)c2ccccc12`, for which the “% Inhibition @ 10 uM” value is recorded as -9.52%. In the case of `Cc1ccc2oc3c(c(=O)c2c1)C(c1ccc(O)cc1)N(c1nccs1)C3=O` (stereo not shown) it was -1.33%; in that of `COc1ccc2ccccc2c1/C=C/c1ccncc1`, -0.268%.

Take `COc1cc(Cl)ccc1S(=O)(=O)N1CCN(c2cccc(Cl)c2)CC1`: the “% Inhibition @ 10 uM” value is -1.84%. Consider `CC(C)C[C@H](NC(=O)c1ccc(B2OC(C)(C)C(C)(C)O2)cc1)C(=O)NCC#N`, for which the “% Inhibition @ 10 uM” value is -5.2%. In the case of `CCc1nnc(NC(=O)CSc2ccc(-c3cccs3)nn2)s1` it was 8.53%; in that of `COCCNC(=O)Cn1ncc2c(Cl)cccc21`, 0.596%; in that of `NC(=O)c1cc(-c2cccs2)nc2ccccc12`, 0.219%.

Consider `O=C(NCC1CCCO1)C(Sc1ccccc1)c1ccccc1` (stereo not shown), for which the “% Inhibition @ 10 uM” value was 1.37%. As for `COc1ccc(C(=O)N2CCc3cc(OC)c(OC)cc3C2C)c(OC)c1` (stereo not shown), the “% Inhibition @ 10 uM” value is listed as -2.65%. Next, `CNc1nc(SC(C)C(=O)Nc2ccc(Cl)c(Cl)c2)nc(N2CCOCC2)n1` (stereo not shown): -2.37%; `C=CCO/C(O)=C1\C(C)=Nc2nnnn2C1c1cccc(OC)c1` (stereo not shown): 3.32%.

`CCOC(=O)C1=C(C)NC(=O)NC1c1ccc(F)c(F)c1` (stereo not shown): the “% Inhibition @ 10 uM” value came out at 1.72%.

Take `Cc1ccc(C(C)C)c(Oc2nc3ccccn3c(=O)c2/C=C(\C#N)C(=O)NCCCOC(C)C)c1`: the “% Inhibition @ 10 uM” value worked out at 0.315%. As to `COC(=O)c1cc(S(=O)(=O)N(C)CC2COc3ccccc3O2)c[nH]1` (stereo not shown), the “% Inhibition @ 10 uM” value is reported as -9.47%. In the case of `Cc1ccc(S(=O)(=O)N(CC(=O)NC2CC3CCC2C3)c2ccc(Cl)cc2)cc1` (stereo not shown) it was -0.695%. In the case of `COc1cccc(CN2CCN(c3ccccc3OC)CC2)c1` it was 6.18%; in that of `COc1cccc(N2C(=O)NC(=O)C(CCc3ccncc3)(CCc3ccncc3)C2=O)c1`, 2.42%. In the case of `CCOc1ccc(CN(C(=O)c2nc(SCC)ncc2Cl)C2CCS(=O)(=O)C2)cc1` (stereo not shown) it was 6.76%.

Take `Cc1cccc(-n2c(Cc3cccn3C)nnc2SCC(N)=O)c1C`: the “% Inhibition @ 10 uM” value was 2.12%.

As to `COCCNc1nn2c(=O)c3c(C)c(C)sc3nc2c2ccccc12`, the “% Inhibition @ 10 uM” value was determined as 6.03%.

`COc1ccc(CN2CCN(Cc3ccccc3Cl)CC2)c(OC)c1`: the “% Inhibition @ 10 uM” value is -1.36%. Take `CC(C(=O)N1CCC2(CC1)OCCO2)n1ncn2cccc2c1=O` (stereo not shown): the “% Inhibition @ 10 uM” value was -7.52%. In the case of `COc1ccc(S(=O)(=O)N2CCN(Cc3ccc4c(c3)OCO4)CC2)cc1C` it was 1.74%; in that of `CCOC(=O)NC12CC3CC(CC(CC)(C3)C1)C2`, -3.27%.
